# Reference: article PMC4336329 (PLoS ONE, 2015)
# Screen size: about 310,000 compounds; about 2,200 (0.71%) showed an effect of 50% or more. Effects have a minus sign here. This is one part of the list.
# Molecular target: human ether-à-go-go-related gene (hERG) potassium channel (human, UniProt Q12809)
# Experiment: primary screen, population patch clamp on CHO cells stably expressing hERG
# Experimental: Briefly, Chinese hamster ovary (CHO) cells stably expressing the hERG channel were dislodged from tissue culture flasks and dispensed into PPC plates. […] During the recording, background leak currents were estimated by a 100 ms step to -80 mV from an initial holding potential of -70 mV and subtracted from the subsequent current measurement. The campaign was conducted in two phases using slight differences in recording protocol. In the first phase, the initial voltage pulse used a 100 ms step to -30 mV from a holding potential of -70 mV, a 2 s conditioning step to +25 mV, and a 2 s test step to -30 mV. During the second phase of the screen, the potential during the conditioning step was raised to +45 mV. In both phases of the campaign, a secondary voltage pulse was applied using the same parameters as the second phase initial pulse. The initial and secondary pulses were applied in the absence of compound, and upon application of 1 μM and 10 μM test concentrations. Small molecule effects on hERG current density were quantified by […].
# Chain of human ether-à-go-go-related gene (hERG) potassium channel (Q12809 whole entry, looked up): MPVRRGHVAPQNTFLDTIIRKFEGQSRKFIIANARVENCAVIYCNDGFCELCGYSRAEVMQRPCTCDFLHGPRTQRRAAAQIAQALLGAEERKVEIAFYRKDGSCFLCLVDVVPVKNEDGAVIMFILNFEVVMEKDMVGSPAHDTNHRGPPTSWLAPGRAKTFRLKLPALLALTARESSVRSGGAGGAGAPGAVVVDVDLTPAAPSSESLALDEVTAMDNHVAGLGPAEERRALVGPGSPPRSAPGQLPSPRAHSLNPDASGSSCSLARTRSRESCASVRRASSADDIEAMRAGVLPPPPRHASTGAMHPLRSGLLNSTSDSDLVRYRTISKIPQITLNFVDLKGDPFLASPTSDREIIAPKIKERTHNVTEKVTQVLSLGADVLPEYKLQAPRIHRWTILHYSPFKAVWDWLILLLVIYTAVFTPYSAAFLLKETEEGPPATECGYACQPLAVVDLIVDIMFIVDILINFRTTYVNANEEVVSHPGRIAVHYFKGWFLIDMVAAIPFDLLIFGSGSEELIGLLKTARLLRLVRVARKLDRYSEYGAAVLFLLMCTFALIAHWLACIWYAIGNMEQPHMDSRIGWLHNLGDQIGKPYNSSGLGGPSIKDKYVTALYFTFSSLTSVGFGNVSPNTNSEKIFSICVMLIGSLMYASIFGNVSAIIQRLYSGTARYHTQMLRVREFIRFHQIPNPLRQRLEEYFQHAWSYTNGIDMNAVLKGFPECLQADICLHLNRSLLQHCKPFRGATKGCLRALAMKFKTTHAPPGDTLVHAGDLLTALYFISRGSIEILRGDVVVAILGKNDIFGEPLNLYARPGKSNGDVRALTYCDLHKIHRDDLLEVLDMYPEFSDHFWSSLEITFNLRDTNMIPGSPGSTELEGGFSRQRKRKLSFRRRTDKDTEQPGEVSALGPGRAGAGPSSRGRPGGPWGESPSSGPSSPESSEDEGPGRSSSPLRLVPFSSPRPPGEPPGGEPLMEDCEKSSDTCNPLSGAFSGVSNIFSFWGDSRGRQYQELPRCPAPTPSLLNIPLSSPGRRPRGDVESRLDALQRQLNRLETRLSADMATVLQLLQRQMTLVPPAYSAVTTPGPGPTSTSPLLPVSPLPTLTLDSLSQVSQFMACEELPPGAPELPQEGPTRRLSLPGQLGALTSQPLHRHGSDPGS
row,SMILES,"hERG current change (%, negative = inhibition) at 1uM"
1,Cc1c([N+](=O)[O-])cc(S(=O)(=O)Nc2ccc(-c3ccc(N4CCCC4)nn3)cc2)cc1[N+](=O)[O-],10%
2,O=C(CN(C(=O)CCC(=O)Nc1ccccn1)c1cccc(F)c1)NCc1ccc2c(c1)OCO2,2.28%
3,CCCS(=O)(=O)N1CCC(C(=O)NCc2ccc(F)cc2)CC1,20.2%
4,O=C(CSC1=NS(=O)(=O)c2cc(Cl)ccc2N1)NCCc1ccccc1,18.4%
5,Nc1nnc(C(F)(F)F)s1,4.92%
6,Cc1[nH]n(-c2ccccc2)c(=O)c1/C=N/Nc1nncc(-c2ccccc2)n1,10.2%
7,COc1ccc(C(=O)NCc2ccccn2)cc1,13.6%
8,O=C(Nc1cccc(S(=O)(=O)NC2=NCCC2)c1)c1cc(-c2ccccn2)nc2ccccc12,5.41%
9,CN(CC(=O)N1CCCCCC1)S(=O)(=O)c1ccccc1,14.4%
10,COc1ccc2[nH]c3c(N4CCC(O)(c5cccc(C(F)(F)F)c5)CC4)ncnc3c2c1,12.3%
11,S=C(NCc1ccccc1)NC1CCCc2ccccc21 (centres unmarked),11.6%
12,CC(C)CC(=O)Nc1ccccc1N1CCCC1,14.6%
13,O=C(Nc1ccccc1F)c1ccncc1,18.3%
14,CCC(C)(C(=O)NC1CCCC1)N(Cc1ccco1)C(=O)Cc1cccs1 (centres unmarked),15.2%
15,COc1ccc(N2CCCn3c2nc2c3c(=O)n(Cc3ccccc3)c(=O)n2C)c(OC)c1,-5.18%
16,Cc1ccccc1CN1CCC(Oc2ccc(C(=O)NCc3ccccn3)cc2)CC1,13%
17,COc1cc(OC)c2ccc(=O)oc2c1C(CC(=O)N1CCN(c2ccccc2)CC1)c1ccc2c(c1)OCO2 (centres unmarked),10.4%
18,Cn1cnc(S(=O)(=O)Nc2ccc(OC(F)F)cc2)c1,17.7%
19,Cc1ccc(S(=O)(=O)/N=C(\Sc2ccccc2)c2ccccc2)cc1,10.2%
20,Cc1ccnc(NC(=O)C2CCN(S(=O)(=O)c3cccc4nsnc34)CC2)c1,11%
21,O=C(CSc1ncn[nH]1)c1ccc2c(c1)OCO2,-8.57%
22,CCN1CCN(c2ccc(S(=O)(=O)N3CCOCC3)cc2NC(=O)CCSC)CC1,14%

row,SMILES,"hERG current change (%, negative = inhibition) at 1uM"
1,CCCc1cc(=O)oc2c3c(cc(OCC(=O)NCC4CCC(C(=O)O)CC4)c12)OC(C)(C)CC3 (centres unmarked),6.22%
2,Cc1ccc(N/C=C/C(=O)c2cccs2)cc1,14.6%
3,O=[N+]([O-])c1cccc(/C=N/N2CCN(c3ccccn3)CC2)c1,13.4%
4,Cc1ccccc1C(=O)Nc1nnc(S(=O)(=O)N2CCCCCC2)s1,5.63%
5,O=C(O)CSc1cc(NS(=O)(=O)c2ccc(Cl)cc2)c2ccccc2c1O,11.7%
6,Cc1ccccc1Cc1c(C)nc2nc(SCC(=O)NCCCN3CCCCC3)nn2c1C,10%
7,Cc1ccc(OCCCC(=O)Nc2nccs2)cc1,15.9%
8,Cc1cccc(C)c1OCc1cc(C(=O)N(Cc2c(C)nn(C)c2C)C2CC2)no1,6.76%
9,O=C1C=C(N2CCCCC2)c2ccccc2C1=O,10.1%
10,COc1ccc(NC(=O)CS(=O)c2ccc(F)cc2)cc1 (centres unmarked),13.9%
11,COc1cc(OC)cc(C(=O)NNC(=S)Nc2ccccc2OC)c1,11%
12,CC(C)(C)N1C(=O)[C@H]2[C@@H](c3ccc(Br)cc3)N3C(=O)N(c4cccc(Br)c4)C(=O)[C@@]3(Cc3ccccc3)[C@H]2C1=O,8.1%
13,O=C(Nc1cc(Sc2ccccn2)cc([N+](=O)[O-])c1)c1ccc([N+](=O)[O-])cc1,10.7%
14,Cc1cccc(NC(=O)CSc2nnc(NC(=O)C3CC3)s2)c1C,6.99%
15,C=CCOc1c(CNc2ncn[nH]2)cccc1OC,15%
16,COc1ccccc1NC(=O)c1sc2nc(N3CCOCC3)c3c(c2c1N)CCCC3,17.6%
17,COc1ccc(C2CC(c3ccc(F)cc3)n3nc(NC(=O)c4ccco4)nc3N2)cc1 (centres unmarked),1.23%
18,CCOC(=O)Cc1csc(NC(=O)CSc2cc(Cl)ccc2Cl)n1.O=C(O)C(=O)O,12.9%
19,CC(=O)Nc1ccc(N/C=C/C(=O)c2ccc(Br)cc2)cc1,12%
20,CN(C(=O)CSc1ncnc2sccc12)C1CCS(=O)(=O)C1 (centres unmarked),11.6%
21,CC(C(=O)N1CCc2ccccc21)N1CCN(S(=O)(=O)c2cccs2)CC1 (centres unmarked),12.2%
22,COc1cc(C(=O)N2CCN(C(=O)C(Cc3cc(C)ccc3C)NC(C)=O)CC2)cc(OC)c1OC (centres unmarked),-8.34%
